Results taken from PubChem BioAssay AID624170 (National Center for Advancing Translational Sciences (NCATS), 2012).
Hit rate of the full screen: of about 410,000 compounds, about 850 (0.21%) were called active. Inconclusive results, whose numbers are uncertain, are shown with a selection of clear calls. The call rests on the fitted dose curve; in most records, active means well fitted inhibition curve with a large enough effect; inconclusive means small, poorly fitted or top-dose-only effect, or another doubt; inactive means no such curve, though single readings can be large or run the other way. Potencies of inconclusive entries are left out as doubtful fits.
On the % scale 0 is the no-effect control and ±100 the full control effect; potency means the concentration at half of the fitted maximal effect; tags describe the fitted curve by direction and shape.

Each compound was assayed against Glutaminase kidney isoform, mitochondrial (Homo sapiens) (UniProt O94925) (assay: qHTS for Inhibitors of Glutaminase (GLS)). Conditions: GLS enzymatic activity, qHTS titration; series mostly up to 45.5 µM; activity change, negative = inhibition: at the top concentration.
Sequence of UniProt O94925 (O94925 whole entry, looked up, canonical isoform): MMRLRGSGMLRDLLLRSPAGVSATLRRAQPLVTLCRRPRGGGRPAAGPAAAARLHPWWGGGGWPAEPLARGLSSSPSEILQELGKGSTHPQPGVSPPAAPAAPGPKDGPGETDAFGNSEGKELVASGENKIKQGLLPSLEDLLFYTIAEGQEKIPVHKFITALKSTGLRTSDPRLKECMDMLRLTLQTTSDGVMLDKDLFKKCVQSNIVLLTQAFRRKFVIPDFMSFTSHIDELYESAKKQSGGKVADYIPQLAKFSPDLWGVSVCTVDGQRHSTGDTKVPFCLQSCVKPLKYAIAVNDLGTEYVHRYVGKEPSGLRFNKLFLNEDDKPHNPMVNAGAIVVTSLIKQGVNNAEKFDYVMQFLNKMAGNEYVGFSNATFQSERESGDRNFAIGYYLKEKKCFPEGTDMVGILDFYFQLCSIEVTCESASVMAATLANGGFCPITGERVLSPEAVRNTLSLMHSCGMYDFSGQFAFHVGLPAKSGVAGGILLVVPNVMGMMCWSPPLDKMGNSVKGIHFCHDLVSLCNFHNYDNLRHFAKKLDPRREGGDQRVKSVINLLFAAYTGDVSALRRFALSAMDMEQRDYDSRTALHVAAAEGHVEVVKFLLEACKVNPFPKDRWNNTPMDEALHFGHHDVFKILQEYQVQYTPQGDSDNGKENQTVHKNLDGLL
Summary of the method: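 Coupled fluorescence readout: glutamate oxidase/HRP/Amplex Red detect glutamate formed by hKGA from L-glutamine (1 mM solution added). Buffer 45 mM KH2PO4 pH 8.2, 0.02% Tween-20; reads at t0 and 30 min RT.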
With `Cc1ccc(C(=O)/C=C/c2ccc(F)cc2)o1` the “activity change, negative = inhibition” value was inactive: 7.96%.
`O=C(NCc1ccccc1)c1cccc2c(-c3cccnc3)coc12` was tested, and the Potency was inconclusive [inhibitor, partial curve, poor fit].
`CC(C)S(=O)(=O)c1csc(C(=O)NN)c1-n1cccc1` was tested, and the Potency was inconclusive [inhibitor, partial curve, poor fit].
With `Cc1cc2nc(-c3ccc[nH]c3=O)n(Cc3ccccc3F)c2cc1C` the Potency was inconclusive [inhibitor, single point].
For `O=C(Cc1cccc([N+](=O)[O-])c1)Nc1cccc(C(=O)N2CCOCC2)c1`, the Potency was inconclusive [inhibitor, single point].
`COC(=O)C1=C(O)/C(=C\c2cc(C)n(-c3ccccc3F)c2C)N=C1C` was tested, and the “activity change, negative = inhibition” value was inactive: -0.649%.
In the case of `CC(C)OC(=O)N(C)C[C@@H]1OCc2cnnn2CCCC(=O)N([C@@H](C)CO)C[C@H]1C`, the “activity change, negative = inhibition” value is reported as inactive: -0.139%.
With `COc1ccc(Nc2nc(-c3cccnc3)cs2)c(OC)c1` the Potency was inconclusive [inhibitor, single point].
With `CN(C)CCNC(=O)CN1C(=O)COc2ccc(S(=O)(=O)N3CCCC3)cc21` the “activity change, negative = inhibition” value was inactive: -3.21%.
`Cc1ccccc1Cn1cc(S(=O)(=O)CC(=O)Nc2nccs2)c2ccccc21` was tested, and the “activity change, negative = inhibition” value was inactive: 0.864%.
With `CCCCCCCC(=O)NN=C1CCN(Cc2ccccc2)CC1` the Potency was inconclusive [inhibitor, single point].
For `O=[N+]([O-])c1cc2c(cc1/C=N/n1c(-c3ccccc3)n[nH]c1=S)OCO2`, the Potency was inconclusive [inhibitor, full curve, poor fit].
With `C/C(=N\NC(=O)c1ccncc1)c1ccc(N(C)C)cc1` the Potency was inconclusive [inhibitor, partial curve].
For `Cc1cc(C(=O)Nc2ccc(Nc3ccccc3)cc2)ccc1[N+](=O)[O-]`, the Potency was active: 15.8 µM.
With `O=[N+]([O-])c1ccc(-c2nnc3cccc(Cl)n23)cc1` the Potency was inconclusive [inhibitor, single point].
With `Cc1ccc(OCCN2C(=O)NC3(CCc4ccccc4C3)C2=O)cc1` (stereo not given) the “activity change, negative = inhibition” value was inactive: -0.881%.
`COc1cc(NC(=O)COc2cc3oc(=O)cc(C)c3cc2Cl)cc(OC)c1OC` was tested, and the Potency was inconclusive [inhibitor, single point].
In the case of `CC(C)CNC(=O)[C@H](Cc1ccccc1)NC(=O)c1cccs1`, the Potency is reported as inconclusive [inhibitor, single point].
`COc1ccc(-c2cc(C(=O)N/N=C/c3ccc(OC)c(COCC(F)(F)C(F)F)c3)c3ccccc3n2)c(OC)c1` was tested, and the Potency was inconclusive [inhibitor, single point].
`O=C(NCC(=O)N1CCN(c2ccccc2O)CC1)C1CCCCC1` was tested, and the Potency was active: 5.62 µM.
With `Cc1c(OCC(=O)Nc2cccnc2)ccc2c3c(c(=O)oc12)CCC3` the “activity change, negative = inhibition” value was inactive: 1.08%.
For `COc1ccc(-c2cn[nH]c2-c2ccc(OCC(=O)NN)cc2O)cc1OC`, the Potency was inconclusive [inhibitor, partial curve].
With `O=C(C=C=Nc1ccccc1)C(=O)N=C=Cc1ccccc1` the Potency was inconclusive [inhibitor, partial curve].
`CN1CCC(OC(=O)c2ccccc2Cl)CC1` was tested, and the “activity change, negative = inhibition” value was inactive: -10.5%.
For `CC(=O)Nc1ccc(NC(=O)CCc2nc3cccnc3n2Cc2cccs2)cc1`, the “activity change, negative = inhibition” value was inactive: -1.47%.
For `CC1(C)CC(=O)C/C(=N/NC(=O)COc2ccc(Cl)cc2Cl)C1`, the Potency was inconclusive [inhibitor, partial curve].
`COC(=O)c1c(NC(=O)c2ccco2)sc(C)c1C` was tested, and the “activity change, negative = inhibition” value was inactive: -4.12%.
In the case of `Cc1nc(CC(=O)NNS(=O)(=O)c2ccc3ccccc3c2)cs1`, the “activity change, negative = inhibition” value is reported as inactive: 9.13%.
For `CCOC(=O)C1=NN(C(=O)Cc2ccccc2)C(O)(C(C)(C)C)C1` (stereo not given), the Potency was inconclusive [inhibitor, single point].
In the case of `Cc1ccc(/C=C2\SC(=S)N(Cc3ccccc3)C2=O)o1`, the Potency is reported as inconclusive [inhibitor, single point].
`COc1cc(/C=N/NC(=O)c2cc(-c3cccc(Br)c3)nc3ccccc23)cc(OC)c1O` was tested, and the Potency was inconclusive [inhibitor, partial curve, poor fit].
`CCOc1ccccc1NC(=O)CN1C(=O)COc2ccc(S(=O)(=O)N3CCOCC3)cc21` was tested, and the Potency was inconclusive [inhibitor, single point].
In the case of `C/C(=N\Nc1nccnc1Cl)c1ccc(Cl)c(Cl)c1`, the Potency is reported as inconclusive [inhibitor, partial curve, poor fit].
`Nc1ccc2ccc(O)cc2c1` was tested, and the Potency was inconclusive [inhibitor, single point].
`COc1ccc(Cc2c(-c3ccco3)nc3ccc(Br)cn23)c(C)c1` was tested, and the Potency was inconclusive [inhibitor, single point].
`Cc1ccc(CCC(=O)Nc2ccc(C#N)cc2)o1` was tested, and the “activity change, negative = inhibition” value was inactive: 0.333%.
With `Cc1ccc(C(=O)NC2CCCN(c3ccc(C(F)(F)F)cn3)C2)cn1` (stereo not given) the Potency was inconclusive [inhibitor, single point].
In the case of `O=C1NC(=O)/C(=C/c2ccccc2OCc2ccccc2)S1`, the Potency is reported as inconclusive [inhibitor, single point].
With `O=C1/C(=C/C=C/c2ccccc2)Oc2c1ccc(O)c2CN1CCN(CCO)CC1` the “activity change, negative = inhibition” value was inactive: -29.2%.
With `COc1ccc(/C=C/C(=O)NC(=S)Nc2ccc(C(=O)O)cc2)cc1` the “activity change, negative = inhibition” value was inactive: -9.96%.
For `Cc1csc(NC(=O)NC2(C(F)(F)F)Oc3ccccc3O2)n1`, the Potency was inconclusive [inhibitor, single point].
In the case of `O=c1c2ccccc2sn1-c1cc(S(=O)(=O)N2CCOCC2)ccc1N1CCOCC1`, the Potency is reported as inconclusive [inhibitor, full curve, poor fit].
`COc1ccc(CNC(=O)c2nc(SCc3ccccc3F)ncc2Cl)cc1` was tested, and the “activity change, negative = inhibition” value was inactive: -7.75%.
With `CCCn1c2ccccc2c2cnn(CC(=O)N3CCCC(C)C3)c(=O)c21` (stereo not given) the Potency was inconclusive [inhibitor, single point].
In the case of `COc1ccc(C=NNc2ccc([N+](=O)[O-])cc2S(=O)(=O)Nc2ccccc2C(=O)O)cc1OC`, the Potency is reported as inconclusive [inhibitor, partial curve, poor fit].
